Legend:
[1] = molecular target: 重组人NT-proBNP (recombinant human N-terminal pro-brain natriuretic peptide, bought from 重庆探生科技有限公司) (human) (UniProt P16860); assay: sandwich ELISA, m1 coated at 5 ug/mL, NT-proBNP 0.273438 ng/L, detection HRP-6C7
[2] = molecular target: 重组人NT-proBNP (recombinant human N-terminal pro-brain natriuretic peptide, bought from 重庆探生科技有限公司) (human) (UniProt P16860); assay: sandwich ELISA, m1 coated at 5 ug/mL, NT-proBNP 1.09375 ng/L, detection HRP-6C7
[3] = molecular target: 重组人NT-proBNP (recombinant human N-terminal pro-brain natriuretic peptide, bought from 重庆探生科技有限公司) (human) (UniProt P16860); assay: sandwich ELISA, m1 coated at 5 ug/mL, NT-proBNP 2.1875 ng/L, detection HRP-6C7
[4] = molecular target: 重组人NT-proBNP (recombinant human N-terminal pro-brain natriuretic peptide, bought from 重庆探生科技有限公司) (human) (UniProt P16860); assay: sandwich ELISA, m1 coated at 5 ug/mL, NT-proBNP 17.5 ng/L, detection HRP-6C7
[5] = molecular target: 重组人NT-proBNP (recombinant human N-terminal pro-brain natriuretic peptide, bought from 重庆探生科技有限公司) (human) (UniProt P16860); assay: sandwich ELISA, m1 coated at 5 ug/mL, NT-proBNP 35 ng/L, detection HRP-6C7
[6] = molecular target: 重组人NT-proBNP (recombinant human N-terminal pro-brain natriuretic peptide, bought from 重庆探生科技有限公司) (human) (UniProt P16860); assay: sandwich ELISA, m1 coated at 5 ug/mL, NT-proBNP 4.375 ng/L, detection HRP-6C7
[7] = molecular target: 重组人NT-proBNP (recombinant human N-terminal pro-brain natriuretic peptide, bought from 重庆探生科技有限公司) (human) (UniProt P16860); assay: sandwich ELISA, m1 coated at 5 ug/mL, NT-proBNP 0.546875 ng/L, detection HRP-6C7
[8] = molecular target: 重组人NT-proBNP (recombinant human N-terminal pro-brain natriuretic peptide, bought from 重庆探生科技有限公司) (human) (UniProt P16860); assay: sandwich ELISA, m1 coated at 5 ug/mL, NT-proBNP 8.75 ng/L, detection HRP-6C7

Sequence of UniProt P16860 (P16860 27-102): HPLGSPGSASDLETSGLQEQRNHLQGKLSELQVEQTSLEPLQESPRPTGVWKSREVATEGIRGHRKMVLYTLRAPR

B1: 人NT-proBNP特异性重组羊单克隆抗体 (sheep scFv fused to human IgG Fc, expressed from pcDNA3.1-NT in 293F cells) (Fc fusion)
chain: MALSQVRLQESGPSLVKPSQTLSLTCTVSGPSLTDYDVDWVRQAPGKALEWLGFINQGAPTGYDPALKSRLSITRDTSKSQVSLSLSSMTAEDTAVYYCARGAILGWGRGLLVTVSSQGSTSGSGKPGSGEGSTKGGQAVLTQPASVSGSPGQTVTISCTGTSGDIAGYNLVGWYQQLPNSAPKTLIYDVSTRRSGIPARFSGSKSGNTATLTISGLQAEDEADYYCSTSISANSVGFGSGTRLTVLGQPKSAPS[letters of human IgG4 Fc not shown]
- A450 (absorbance at 450 nm) [1]: 0.09
- A450 (absorbance at 450 nm) [2]: 0.162
- A450 (absorbance at 450 nm) [3]: 0.242
- A450 (absorbance at 450 nm) [4]: 1.64
- A450 (absorbance at 450 nm) [5]: 2.84
- A450 (absorbance at 450 nm) [6]: 0.494
- A450 (absorbance at 450 nm) [7]: 0.103
- A450 (absorbance at 450 nm) [8]: 1.06
